The full ranking holds about 33,000 sequences; the median of “E-score (-0.5 to 0.5)” is about -0.016, and the highest 2% start at about 0.32. The list shows a part of the results.
Target: T1, Stp1 (UniProt B3LFK1)
T1 sequence: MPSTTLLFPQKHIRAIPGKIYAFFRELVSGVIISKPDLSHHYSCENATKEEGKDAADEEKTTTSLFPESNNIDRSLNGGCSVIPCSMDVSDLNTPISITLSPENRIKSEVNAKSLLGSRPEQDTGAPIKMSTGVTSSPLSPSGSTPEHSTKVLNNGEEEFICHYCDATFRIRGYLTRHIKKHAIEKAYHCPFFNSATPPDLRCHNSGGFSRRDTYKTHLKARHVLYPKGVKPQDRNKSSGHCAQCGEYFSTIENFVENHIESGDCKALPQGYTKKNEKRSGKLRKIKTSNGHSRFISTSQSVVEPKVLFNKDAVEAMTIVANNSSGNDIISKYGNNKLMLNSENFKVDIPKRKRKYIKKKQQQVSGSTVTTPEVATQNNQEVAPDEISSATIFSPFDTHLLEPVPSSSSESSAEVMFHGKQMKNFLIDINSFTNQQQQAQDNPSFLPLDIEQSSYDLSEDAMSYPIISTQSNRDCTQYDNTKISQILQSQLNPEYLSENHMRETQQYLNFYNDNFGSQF
Assay: PBM E-score (8-mer binding enrichment) (E-score (-0.5 to 0.5)); higher = stronger / more preferred TF binding; most listed sequences are background and not binding sites
Settings: protein concentration: 200 nM; construct: GST-full length
Procedure, shortened: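 Yeast transcription factors carrying a GST tag, as full-length proteins or DNA-binding domains, were produced by PURExpress in vitro transcription/translation. About 100-200 nM protein was applied to universal all-10-mer Agilent arrays, double-stranded by primer extension on fresh or once-stripped slides. Bound protein was detected with fluorescent anti-GST, and scans were normalised with masliner. The Universal PBM Analysis Suite gave each ungapped eight-base word, pooled with its reverse complement, an E-score, a modified Wilcoxon-Mann-Whitney statistic.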

Sequence	PBM E-score
GCCGCCAA	-0.0138
GATTTCAC	0.0443
CCCTCACC	-0.419
CGCAAATA	0.164
AGTCGAAC	-0.146
GAACATGC	-0.0783
ATCAGCAC	0.0411
AATTCAAT	0.168
CAATCGCC	0.246
AGCGATCG	-0.0207
ACGAAATC	0.122
AACCGGAA	-0.097
CCGACGCA	-0.198
ACGCCCTG	0.288
CATGCGCA	-0.0214
GCGCGGCC	0.4
AATGGGCT	-0.226
TGGGGTAA	0.05
AGCGCTGC	-0.0136
ATAACATG	-0.00579
CAACACAA	0.1
ACCCAATA	-0.104
ACGCAGGA	-0.166
ATACATAT	0.303
AATGTAAG	0.137

Sequence	PBM E-score
GATAATAC	0.0667
GCTTTAAA	0.0475
AAGAGGGG	-0.057
CCGCGTCG	0.355
CGAATGCA	0.0903
AACAGGGA	0.0073
AGGCCAAG	-0.35
CATGTGTA	0.153
AGGAGCAC	-0.117
ACATCTTG	-0.119
AGATATTC	-0.154
AATAAACG	0.18
CAGAGTGC	-0.0833
AGCCTCTA	-0.127
CCCACCCC	-0.037
GGCTCGTA	0.0726
ATTATACG	0.294
ATGGACCC	-0.193
AACCCTAC	-0.186
GGCATGCA	0.134
GTTTACAA	0.109
CTCATTAC	0.148
TCCGCCAA	-0.136
ACTTGCTG	0.0559
ACGGCCTC	0.263

Sequence	PBM E-score
GGTCACAC	-0.18
ACGACTTA	-0.179
GACTGCAC	-0.233
CTGAAGAC	-0.0623
CCGAGTAA	0.0365
CTACCCTA	-0.166
TACTACGA	0.104
TAACCCGA	-0.19
CCAGACAA	-0.0888
TAGGGTGA	-0.293
TCCTCTAA	-0.222
CGTCTCCA	0.224
ATCGGGAC	-0.198
ACAAATAC	0.274
CAGCACCG	-0.117
AAGGGATC	-0.178
ATCCCGTA	0.0591
CGGAGATA	0.0846
AGGAGCTA	-0.126
AGTCCAGA	-0.175
ACTAGTCG	-0.187
CCCCTTAG	-0.278
ACTCTAAG	-0.221
CGATTGCA	0.103
CATCGAAG	0.157

Sequence	PBM E-score
AATTCTGG	-0.134
ATTCGTGC	0.31
CTGTCCTA	-0.199
AACAACCC	-0.0849
GATTCGTA	0.0649
TCTCCAAA	0.0398
ACTCATTC	0.0223
GTATATTA	0.159
AGGTCTAC	-0.258
CGCTATCC	0.0404
AAGTGCTG	-0.0243
AAAGGCTT	-0.0867
GATTCTTA	0.154
AATGTTGA	-0.154
TGATAGAA	-0.198
AGGAGTAA	0.0799
CTTCCACC	-0.2
CCGGTACG	-0.209
GAGCTTAA	-0.234
CGAATAGA	-0.095
CCTTGGCG	-0.174
ACCAGTTC	-0.0513
CATAAGCG	0.00279
ACTTATTA	0.00052
GCACTCGA	-0.0637

Sequence	PBM E-score
CGTGTGAC	0.05
GCCATCCA	-0.0691
GTCCGTAA	-0.0628
ATCTAGTA	0.151
CCGGAGAA	-0.213
ATGCTATG	-0.0201
GCTGTTCC	-0.221
ATCAGGGA	-0.201
AAGTTGGC	-0.0139
AAAGTGAG	0.012
ATAGCGAC	-0.174
ACATGTCT	-0.105
ATATACGA	-0.0481
ATTCGTCC	0.227
CGCAGCGC	0.239
ACGAAACT	0.126
AGAGGGCA	0.055
GCGCCCAC	0.192
CGCATTCA	0.123
GTCTCTTA	0.0525
CTAGTGGA	-0.261
AATGCTAC	0.129
AACCTAGA	-0.0605
GAACCGCA	0.166
ATGACTGA	-0.164

Sequence	PBM E-score
AAGCAACG	0.134
ATGTAGCC	-0.153
ACATTGGA	-0.205
ACGAAGCT	-0.0462
AGAGCCGC	0.44
ATTTAATG	0.225
CGCGCCAA	0.132
TGAAGGAA	0.0407
ATATCACC	0.0601
ACGGGTCG	0.163
CCGCAACA	0.197
CGCATCAG	0.0357
CCGTTCTA	0.237
AGCGCTGA	-0.0259
CATGGCAG	0.128
ATTCTTGA	0.0236
ATTGCCCG	-0.0444
GCTGATCA	-0.118
TATTGAAA	0.178
GGTCCTAC	-0.113
ATGATCAA	0.121
CCGAGCCG	0.334
ATCAACCA	-0.0725
CCGGTTAC	-0.0144
AATGGGCG	-0.138

Sequence	PBM E-score
AAGAGTTA	-0.148
CGAGCCTA	-0.0212
AAACAGTA	-0.0184
GCATATGA	0.171
GACACAAC	0.0796
GTCACCAA	-0.2
AATGGGGA	-0.238
TGGGGGAA	-0.386
ACGCGCTG	0.119
CCACGGTA	-0.0638
ACCGATCC	-0.157
AAACGTTT	0.0331
CTGCACGA	-0.152
GCCTCCAC	-0.182
AGCTCGTG	-0.0692
CATACCGC	0.0691
CCTTTAGC	-0.0318
ACCCGTCC	-0.207
CTGTGCCC	0.242
AGTGTTCA	0.0294
GAGGAGAC	-0.143
CCTCGATC	-0.18
CGATACGC	0.0924
TCCGGGCA	-0.149
CCGAGTTC	0.0434

Sequence	PBM E-score
TCCTAGAA	-0.0129
ATAGGGCC	-0.0431
AAGCGCGC	0.226
ACGTGCTG	-0.0413
GAAACCAA	-0.0238
AGGGTTAT	-0.0286
GCTATGTA	-0.0174
CCATGAGA	-0.118
CAAAATGC	0.122
AGCCTGTC	-0.054
AATATGGC	0.121
AGTGCACA	-0.0587
CTAACGCC	0.215
TACTTAGA	-0.022
ATTCTACA	0.221
AGAGGGCC	-0.233
AAATTGGG	-0.00017
ACCAGGCA	-0.231
ACATTGGG	-0.255
GTGGGATA	-0.0825
ATCAGTGG	-0.124
CCAAGCCC	-0.241
CAGTAACA	-0.139
GTTGCGGA	0.00249
TTGATCAA	0.149

Sequence	PBM E-score
ACGGACGA	0.0876
CCGCAGTC	0.0955
CCTTACAG	0.0881
ACGAATCC	0.102
TACAACCA	0.151
CTTTTATA	0.0395
AGCTCTCC	-0.242
AGAGAGCC	0.148
TAACCTGA	-0.131
ATGTTTTA	0.132
AGCATCTG	-0.0786
CAATTTTC	0.0158
AGATCCTC	-0.251
CTATCGTA	0.0458
ACCATGAG	-0.195
ACACCACG	0.0166
CAATGAAC	0.0426
CCTTATCC	-0.0848
ACGAGCAA	-0.24
CCCCCTGA	-0.338
CAAAATGA	0.182
GTGGTATA	0.0163
ATTATGGC	0.0101
AACATAAT	0.214
AAGAAACT	-0.0398

Sequence	PBM E-score
CGATCCCA	-0.0852
ATCTGTTA	0.0856
AGGGGGCA	-0.252
ACAATTCC	-0.0617
ACAACGAA	0.0704
ACTCGCGA	0.168
GACGCGCC	0.348
AGCAGCAG	-0.0457
CGACCACA	-0.215
CGCCGAAG	0.13
ACCACTGG	-0.151
ACTGCAAT	0.0998
GCCCAGGC	-0.209
AGGGCTTG	-0.0291
CAAGCTAC	-0.171
CGGGATAG	-0.0247
GCCAGACC	-0.0926
CTACGGAG	-0.0394
CGTTGGGA	-0.0414
GACAGTAA	0.0631
TGAATAAA	0.225
ATGAAGGG	-0.177
ATGCGCCC	0.158
AGCTGGAG	-0.237
ATCGTTTA	0.213

Sequence	PBM E-score
CACGTTAG	0.0297
CTACGTCA	-0.204
CTGGCAGA	0.0447
ACGAGTCT	-0.301
CACCAATC	0.0442
CCGTGTCG	0.285
ACAGAGCC	0.0316
ATCACGGA	-0.0235
GTCAACTA	0.0182
ACAGCGGT	-0.0982
GGCGTTAA	0.283
TATCATCA	0.191
CCCCTATA	-0.241
AATACGCG	0.203
AATGTCGG	0.0531
ACTCGATA	0.152
CATCGAAA	0.141
CAGGCCAA	-0.233
AGAGCGCG	0.1
CCCTATTA	-0.0216
ACAGGGTG	-0.32
ATCTCAAC	0.0719
AATGACCC	-0.289
AGTTAACT	0.2
CATGTCAA	-0.0416

Sequence	PBM E-score
CCAAAGCG	0.0506
ATATTGGG	-0.2
GAATCAGC	-0.0687
CGCCGTAA	0.418
GCGTTTAC	-0.082
CTTTGCTA	-0.0117
TCCCCTCA	-0.106
GGAGAAGA	-0.154
AAGTCCCT	-0.363
GTGAGGCA	0.367
CTAAGGAA	0.066
CCCCCTCC	-0.379
ACACATGG	-0.0182
ACCATATG	-0.215
TAGCCCCA	-0.116
AGGTCCAG	-0.106
CAGAAGAC	-0.082
CGCGTGCC	0.325
AAACTCGA	-0.0615
CTGCTCGA	-0.171
CCTGAGTC	-0.227
GAGAACGC	-0.0745
ATGTGCCC	0.0678
GTAATGAA	0.109
AAACCATT	-0.0453

Sequence	PBM E-score
CATTACTC	0.0185
AGGAGCAG	-0.147
GCTTAAAC	0.00392
CCGCATAG	0.287
CTCGCCAA	0.0165
ATTTGGTG	0.0917
ATCACCGG	-0.0553
ATTCCGTA	0.106
ACCATGTA	0.0348
CTATGGTA	-0.0844
ACAATATC	0.0596
CGGTCGGA	-0.0604
ACAGTTAC	-0.0301
AACCACGC	0.144
AACCAAGC	-0.0107
ATGCTGTC	-0.129
ATGCGTGA	-0.0753
GATTGTCC	-0.0756
GCTCACGA	-0.0268
CCGCCGGA	0.0267
CGTAGACC	-0.193
TAAAGGAA	-0.0551
AGTGCGTC	-0.24
CGCGTACA	0.132
GACCATAA	0.0286

Sequence	PBM E-score
ACAGGTGG	-0.0148
CGCCCACA	0.112
ATAAGCCA	-0.0425
ATAGGGCG	0.282
AGCGTTCG	-0.0788
GATAATCC	-0.175
AGTATAGC	-0.0636
AGAGCTGC	-0.17
CTATTGAC	-0.106
CGTAAGAA	0.0238
AAGGTAGC	-0.167
CCTGCACG	-0.064
ATGCTACA	0.0251
GTGCGCAA	-0.0196
ACCTTTGG	-0.175
GAGTTAGC	0.0268
AGGGGACT	-0.197
ACTAACGA	0.0942
CGTCGTGA	-0.24
